According to PubChem BioAssay AID360 (National Center for Advancing Translational Sciences (NCATS), 2006):
Among all 48,000 compounds or so, about 550 (1.1%) were called active. About 4% were inconclusive and are not listed. No stated cut-off is given here; in the data, active means potency below about 15 µM; inconclusive means mostly about 16 µM to 33 µM; inactive means weaker than that. This is one part of the list.

biological target: Lysosomal acid glucosylceramidase (Homo sapiens) (UniProt P04062); experiment: Glucocerebrosidase; settings: purified enzyme, resorufin glucoside fluorescence (screen aimed at inhibitors), 20 min;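 further: the screen sought inhibitors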
Procedure, shortened: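 Normal human glucocerebrosidase (0.2 nM final) was assayed with resorufin β-D-glucopyranoside (30 uM final) in 50mM citric acid/KH2PO4, 10mM sodium taurocholate, 0.01% tween-20, pH 5.9. Compounds were titrated; fluorescence (Ex 548, Em 600) read after 20 min at RT.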
Potency means the concentration at half of the fitted maximal effect.

Sequence of UniProt P04062 (P04062 whole entry, looked up): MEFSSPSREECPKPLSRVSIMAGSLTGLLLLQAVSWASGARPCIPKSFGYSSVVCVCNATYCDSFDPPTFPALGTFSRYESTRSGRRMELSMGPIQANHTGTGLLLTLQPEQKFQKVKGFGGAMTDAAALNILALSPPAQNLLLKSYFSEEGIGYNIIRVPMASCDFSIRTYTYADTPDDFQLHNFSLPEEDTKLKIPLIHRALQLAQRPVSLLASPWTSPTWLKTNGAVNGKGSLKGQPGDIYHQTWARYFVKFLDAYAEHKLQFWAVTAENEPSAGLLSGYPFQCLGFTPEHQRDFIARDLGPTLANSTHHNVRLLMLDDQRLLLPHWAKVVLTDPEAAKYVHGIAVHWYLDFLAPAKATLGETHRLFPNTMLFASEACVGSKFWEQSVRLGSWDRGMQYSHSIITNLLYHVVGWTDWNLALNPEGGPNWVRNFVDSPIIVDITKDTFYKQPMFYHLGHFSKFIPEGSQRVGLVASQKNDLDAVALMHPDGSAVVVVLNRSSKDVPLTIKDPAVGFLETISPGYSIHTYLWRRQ

Potency, inactive:
O=C1OC2CC3CC1CC(O)(C3)C2 (configuration not stated) > 76.9 µM, O=C(O)c1cccc(C(=O)Nc2cccc(NC(=O)C3CCCO3)c2)c1 (configuration not stated) > 76.9 µM, CCOC(=O)C1CCCN(Cc2ccc3c(c2)OCO3)C1 (configuration not stated) > 76.9 µM, O=C(CCN1C(=O)C2C3C=CC(C3)C2C1=O)Nc1ccccn1 (configuration not stated) > 76.9 µM, Nn1c(SCC(=O)Nc2ccc(F)cc2)nnc1C1CCCCC1 > 76.9 µM, Cc1cc(C)n(C(=O)CNC(=O)c2ccco2)n1 > 76.9 µM, CCOc1ccc(C2C3=C(CCCC3=O)Nc3nc(C(F)(F)F)nn32)cc1OC (configuration not stated) > 76.9 µM, CC1CC(=O)c2cnc(NCC3CCCO3)nc2C1 (configuration not stated) > 76.9 µM, Cc1cc(-c2ccccc2)nc2cc(C(=O)NCCCn3ccnc3)nn12 > 76.9 µM, C=CCOc1ccc(C2c3c(oc4ccccc4c3=O)C(=O)N2CCCN2CCOCC2)cc1 (configuration not stated), O=C1CC(=O)CC(c2ccco2)C1 > 76.9 µM, Cc1nc(N)sc1-c1nnc(SCC(=O)Nc2nccs2)n1C > 76.9 µM, CCOC(=O)CNC(=O)CSc1nc2cccnc2n1C > 76.9 µM, Cc1ccc(NC(=O)CCSc2nnnn2-c2ccc3c(c2)OCO3)cc1C > 76.9 µM, CS(=O)(=O)NCCC1=CCCCC1 > 76.9 µM, O=C(Nc1ccc(N2CCN(C(=O)c3ccco3)CC2)cc1)c1ccc2c(c1)OCO2 > 76.9 µM, CCN1CCN(C(=O)C2=C(C(=O)O)CCCC2)CC1 > 76.9 µM, Cn1c(CCN2CCOCC2)nc2cc(NC(=O)COc3ccc(Cl)cc3)ccc21 > 76.9 µM, O=C1c2ccccc2S(=O)(=O)N1CC(O)Cn1ccc2ccccc21 (configuration not stated) > 76.9 µM, Cc1cc(OCC(=O)O)c2cccc(C)c2n1 > 76.9 µM, CCC(=O)N1CCc2cc(S(=O)(=O)CCC(=O)Nc3ccc(F)c(F)c3)ccc21 > 76.9 µM, Cc1ccc(N2CC(C(N)=O)CC2=O)cc1C (configuration not stated) > 76.9 µM, COC(=O)c1sc2cnccc2c1N > 76.9 µM, Cc1noc(C)c1COc1ccc(C(=O)OC(C)C(=O)Nc2ccc(N3CCOCC3)cc2)cc1 (configuration not stated) > 76.9 µM, COc1ccc(OC)c(C2=NOC(C(=O)NCC3CCCO3)C2)c1 (configuration not stated) > 76.9 µM, FC(F)(F)c1cccc(NCc2cn3cccnc3n2)c1 > 76.9 µM, O=C(Nc1nnc(-c2ccccc2)o1)c1ccc(Cl)cc1 > 76.9 µM
